# In the BET-seq Pho4 binding data (Le et al. 2018):
# The list shows a part of the results. Values were computed here from the reads of four pooled replicates and scatter widely.
# Target: T1, Pho4 (S. cerevisiae) (UniProt P07270)
# T1 sequence: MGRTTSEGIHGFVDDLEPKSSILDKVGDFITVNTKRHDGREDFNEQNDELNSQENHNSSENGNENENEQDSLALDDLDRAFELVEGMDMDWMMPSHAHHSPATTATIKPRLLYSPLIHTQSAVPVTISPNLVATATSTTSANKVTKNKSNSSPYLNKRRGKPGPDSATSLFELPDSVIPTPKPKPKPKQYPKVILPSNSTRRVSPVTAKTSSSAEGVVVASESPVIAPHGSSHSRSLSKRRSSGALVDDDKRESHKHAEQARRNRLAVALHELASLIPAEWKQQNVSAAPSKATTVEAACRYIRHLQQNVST
# Assay: relative binding free energy (BET-seq); higher = weaker binding
# Conditions: reference: library average
row,Sequence,relative binding free energy [kJ/mol]
1,GTAAGCACGTGAAGTT,0.544
2,AATGGCACGTGCTGAG,-0.669
3,TTTAGCACGTGGATTT,-0.0418
4,CATGTCACGTGGGTTA,-0.0837
5,ACGGACACGTGTGTGG,-0.418
6,TTAACCACGTGTGGGG,0.167
7,GTTAGCACGTGTACGT,-0.167
8,AGTTTCACGTGGAAAA,0.962
9,TGTGGCACGTGATAAT,0.251
10,TTTATCACGTGAGAGG,1.13
11,ATATGCACGTGTAGTC,-0.126
12,AGTTTCACGTGAAATG,1.55
13,TTGTCCACGTGTGAGG,0.628
14,TGCTGCACGTGGCGCT,-0.46
15,AAGGGCACGTGTAAAT,0
16,TCGGTCACGTGGTGTA,-0.0418
17,TGTCACACGTGGGTCG,-0.962
18,TAGTTCACGTGGCTCT,1.46
19,TGAAACACGTGGAGGC,0.251
20,GGGAGCACGTGGTCGA,-0.669
21,CGTGGCACGTGAAATG,0.879
22,ATGGTCACGTGCTATT,0.209
23,TGTTTCACGTGTAGAG,1.13
24,GTCAGCACGTGGCGGG,-0.586
25,AGGGGCACGTGTCCAG,-0.586
26,TCCTGCACGTGTGGTG,0.293

row,Sequence,relative binding free energy [kJ/mol]
1,TTGTACACGTGTCTTG,0
2,ATATTCACGTGAATAG,1.38
3,ATGGACACGTGATAAT,1.21
4,TATTACACGTGTAGTG,0.251
5,TAAGGCACGTGTCAGT,-0.335
6,GTTGCCACGTGGTCTT,-0.0837
7,GGTTGCACGTGTAGGG,0.209
8,TGGAACACGTGTGGTG,0.126
9,TGCCACACGTGTGTGG,0.335
10,TGGGCCACGTGCTTAG,-0.335
11,TCGTGCACGTGTGAGG,0.293
12,GTTGGCACGTGTGGTG,0.126
13,TGGCTCACGTGGGCGT,0.879
14,TTTGTCACGTGAGAGT,1.72
15,TTTCGCACGTGAGTCT,0.879
16,GTTTTCACGTGTCTTA,1.63
17,AATGGCACGTGAATTT,0.628
18,TCAGTCACGTGGGTTC,0
19,GGGTGCACGTGGTTCG,-0.293
20,ATGCACACGTGGGTTG,-0.669
21,GTACGCACGTGCTGGT,-0.209
22,ATTCTCACGTGAGGGG,1.55
23,GGATTCACGTGGAGTC,1.67
24,TGATTCACGTGACGTT,1.13
25,AGGGGCACGTGGCTGG,-0.879
26,CGTCGCACGTGGGGGC,-1.09

row,Sequence,relative binding free energy [kJ/mol]
1,TATATCACGTGCGGTA,0.669
2,TTAAGCACGTGTGGCC,0.0837
3,CTTAGCACGTGTGATT,0.669
4,AGGGTCACGTGGCATA,0.0837
5,TAACACACGTGTGGTT,0.209
6,TTCGGCACGTGTTCAT,-0.209
7,AATTGCACGTGGTATG,-0.418
8,GGTTTCACGTGGATCA,1.21
9,GGTGACACGTGGACGG,0.335
10,TAAGTCACGTGGACGG,0.502
11,TAGGACACGTGTGTCT,0.586
12,GTGAACACGTGTGGGA,0.46
13,AGTCGCACGTGGAGCG,-0.126
14,GATGTCACGTGGGGTT,0.377
15,AGGGGCACGTGCATCG,-1
16,TGTGTCACGTGTAGAA,0.46
17,ATGTCCACGTGGATTT,0.628
18,CTCTTCACGTGTTGGG,1
19,TTAGGCACGTGGTTAT,-0.962
20,GACGGCACGTGAGGTT,1.42
21,TATTACACGTGTGTAG,0.0418
22,TTTGCCACGTGGGGTC,-0.544
23,CGCGGCACGTGTGGGA,-0.209
24,TCGGGCACGTGGTGAA,-0.711
25,AACTTCACGTGTGAGT,1.26
26,GGAAGCACGTGTTTAT,-0.293

row,Sequence,relative binding free energy [kJ/mol]
1,CGTGCCACGTGGAGGG,0
2,GGGTGCACGTGATTTG,1.13
3,GGGCGCACGTGTGCGG,-0.711
4,CGAGTCACGTGTGGGC,0.502
5,TATAACACGTGGTTCA,-0.209
6,CTATTCACGTGGTGGC,0.962
7,TGTTGCACGTGGGAGA,-0.293
8,TGTCGCACGTGAGGAT,0.711
9,GTGAACACGTGTGTCG,0.418
10,TTGGGCACGTGCTAGT,-1.05
11,GGAGTCACGTGAAGCT,1.63
12,AGAAACACGTGAGTGT,0.628
13,ATCGGCACGTGGATTT,0.126
14,TCGGTCACGTGTGGGT,0.962
15,GCGCGCACGTGCTGGG,-0.377
16,TAATACACGTGTAGGT,0.377
17,TTTGCCACGTGCTGTT,-0.502
18,TTTTGCACGTGTCACG,0.126
19,TAAAACACGTGGTGCT,-0.209
20,CTTGACACGTGTTGTG,0.251
21,GCTTACACGTGTTATT,0.586
22,TGAAACACGTGCGGGT,-0.377
23,GGTAGCACGTGGATGA,0.711
24,GAGGTCACGTGGTCGT,0.544
25,ATATTCACGTGTGCGG,0.962
26,GCGTTCACGTGAAGGA,2.09

row,Sequence,relative binding free energy [kJ/mol]
1,TGTATCACGTGTTTAC,1.34
2,AAGTACACGTGGATTG,0.544
3,TGTAGCACGTGCGTTT,-0.377
4,AGTTTCACGTGTCGAG,1.09
5,GAGTGCACGTGGGACT,-0.377
6,AAAGTCACGTGTGTGG,0.377
7,ATGGTCACGTGTACTG,0.0837
8,CTATTCACGTGTTATA,0.879
9,TGTGACACGTGATGAA,0.0837
10,TAGTGCACGTGAGGTA,0.837
11,ACTGTCACGTGGGATT,0.0418
12,GTAGTCACGTGGGTGC,-0.126
13,TTTATCACGTGAGTGT,1.59
14,AGGTGCACGTGAAGTG,1.05
15,AGGGGCACGTGGGTCT,-1.05
16,TCTGTCACGTGTAAAT,0.962
17,CGTAACACGTGGTGGG,-0.837
18,GGCTGCACGTGTGTAA,0.167
19,TCGGTCACGTGGTATT,0.293
20,TGATCCACGTGGGGGT,-0.293
21,GGGTTCACGTGAAGTT,1.88
22,TGGGCCACGTGGTGTT,-0.628
23,TGGTGCACGTGTCTCG,-0.293
24,GTAGTCACGTGTGTTA,0.502
25,GTGGCCACGTGGGGTG,-0.92
26,TTTGGCACGTGCTAAT,-0.837

row,Sequence,relative binding free energy [kJ/mol]
1,GGGTTCACGTGTGGTG,1.51
2,GTGATCACGTGGGACG,0.335
3,GCGAGCACGTGTGGGT,0
4,GTGAACACGTGGGAGG,-0.46
5,GTTGACACGTGTGGAT,0.251
6,TGTGGCACGTGTGTCT,-0.335
7,TGCTGCACGTGGTGGT,-0.669
8,TTGAACACGTGGCTGT,0.502
9,GATTGCACGTGGGGCA,-0.628
10,AAGGGCACGTGTTCGG,-0.293
11,TTGAGCACGTGCTGGC,-0.502
12,CGTTCCACGTGGATGG,0.418
13,TTATCCACGTGAGTTG,0.502
14,TTAATCACGTGGACGT,0.46
15,ACATTCACGTGTGATG,1.3
16,GAGTACACGTGGTAGT,0
17,CGGGACACGTGGGTCG,-0.293
18,GAGTTCACGTGTGGAA,1.84
19,TTATTCACGTGGTCCG,1.38
20,GTGCTCACGTGGACGG,1.26
21,GGTTGCACGTGCCAGG,-0.0418
22,ATGCGCACGTGAGGCG,0.209
23,CATTTCACGTGTTTGG,1
24,ATTCTCACGTGGGTAA,0.209
25,ACTTTCACGTGATGTA,1.26
26,AGGAACACGTGAGTGT,1.3

row,Sequence,relative binding free energy [kJ/mol]
1,TGCGGCACGTGTGTTC,0
2,TCTGTCACGTGTAAGA,0.46
3,TTCGTCACGTGTGCGG,-0.167
4,GGTGGCACGTGGCTCG,-0.46
5,AGCCACACGTGGGGTG,-0.377
6,GTATGCACGTGGTAGC,-0.167
7,ACTATCACGTGTTATG,0.377
8,TTGAGCACGTGTGCGC,-0.0418
9,ATGCTCACGTGTGCGG,0.544
10,TAAAGCACGTGGAAGG,0.335
11,GGCGGCACGTGGGGTA,-0.335
12,TCTGTCACGTGAGTGA,1.09
13,TAATTCACGTGTACGG,1.38
14,TAACGCACGTGTTTGA,-0.0418
15,GTTGCCACGTGGGTTA,-0.879
16,TTTAGCACGTGCGTCT,0
17,TGTGGCACGTGGCTAT,-1.21
18,GTATGCACGTGATGTA,0.377
19,AGGGTCACGTGTGGGA,0.628
20,TTCGTCACGTGGCGGG,0.251
21,GGGTTCACGTGAATTG,1.67
22,GGTCGCACGTGGAGTT,0
23,TTCTGCACGTGGAGCG,0.126
24,AGGGTCACGTGGGTTG,-0.126
25,TTTATCACGTGTTATG,0.795
26,TTTCGCACGTGTATAT,-0.335

row,Sequence,relative binding free energy [kJ/mol]
1,GTGAACACGTGCTCGG,0.251
2,GATATCACGTGTTGAG,0.795
3,TAGGCCACGTGAGAGG,0.669
4,AAAGGCACGTGTATGA,-0.251
5,GTTGACACGTGGTCGT,-0.293
6,TGGGACACGTGCTTAT,-0.126
7,GAGGACACGTGTCGGT,1.34
8,AGGTGCACGTGGGATA,-0.92
9,GTAGGCACGTGCAAGG,-0.377
10,AGCTTCACGTGAGTTG,1.51
11,ATGTGCACGTGTTACA,-0.586
12,CATGGCACGTGCGGGA,-0.711
13,ATGGGCACGTGAGACA,0.628
14,CGATGCACGTGTGTAG,-0.0418
15,GAACTCACGTGGGGTT,1
16,GGTAGCACGTGTGGCA,-0.586
17,CTTTCCACGTGGGGGT,-0.126
18,ATTTGCACGTGAGAGG,0.544
19,TATTACACGTGTTAGT,0.0418
20,TGGTGCACGTGGTCCG,-0.669
21,GAATGCACGTGGCGTA,0.209
22,ATGTGCACGTGAGTAG,1.05
23,GCTTACACGTGGATTG,0.377
24,ACGTGCACGTGTTGAG,-0.418
25,GCTGGCACGTGGGGGA,-1
26,TTTATCACGTGAATTT,1.63

row,Sequence,relative binding free energy [kJ/mol]
1,GTGTACACGTGCGAGT,0.0418
2,GATGGCACGTGTAGAT,0.837
3,GGGAACACGTGGTGGC,-0.502
4,GATGTCACGTGCGGCG,0.711
5,GATTGCACGTGACGTT,0.209
6,AGTGGCACGTGGATTT,-0.669
7,GCCTGCACGTGGGGTG,-0.753
8,TGCGTCACGTGGGTCA,-0.711
9,GGGGACACGTGGGCAA,0.0837
10,TGTTTCACGTGGATTG,0.92
11,AATTGCACGTGCGGGA,-0.711
12,GGAGTCACGTGAGGTA,1.76
13,GTAGGCACGTGGTGGA,-0.126
14,GTTTCCACGTGGGAAT,0.669
15,CGGGGCACGTGTACTG,-0.126
16,GTACGCACGTGGCGGT,-0.669
17,GTGAGCACGTGTAAGA,0.167
18,TTGGTCACGTGCCGGA,0.251
19,AATGGCACGTGGTTTC,-0.962
20,CGTGACACGTGGTGTA,-0.586
21,TTTGCCACGTGTCTGT,-0.669
22,TATTACACGTGGGCTA,-0.293
